# Data published in the supplement of paper PMC10037445.
# Whole data set: some 2,900 compounds, median “IRF Lucia reporter activity, fold change vs agonist alone” near 0.9, cut for the highest 2% near 2.8. The list shows a part of the results.
# Tests used:
# RAW-Dual [1] = experiment: IRF Lucia reporter activity, fold change vs agonist alone; cytotoxicity flag (confluency mask): not cytotoxic; higher = enhanced IRF activity
# In short: (§1)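 RAW-Dual macrophages were seeded in DMEM at 50,000 cells/well in 384-well plates, given 50 nL of library stock by pin tool, and given a PRR agonist 1 h later. Plates were held at 37 °C, 5% CO2 for 20 hours, after which supernatant was read for IRF by QuantiLuc luminescence and for NF-κB by QuantiBlue absorbance at 620 nm. Reporter activity is expressed as fold change over wells that received agonist alone. A well was called cytotoxic when IncuCyte confluency fell below 70% of agonist controls in both mask sets.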
# RAW-Dual [2] = experiment: IRF Lucia reporter activity, fold change vs agonist alone; higher = enhanced IRF activity; conditions: agonist: MPLA (TLR4) […]
# In short: as §1
# RAW-Dual [3] = experiment: IRF Lucia reporter activity, fold change vs agonist alone; cytotoxicity flag (confluency mask): cytotoxic (confluency <70% of control); higher = enhanced IRF activity
# In short: as §1
# [4] = agonist: 3'3'-cGAMP (STING) 10 ug/mL
# [5] = library stock concentration (final ~1000-fold dilution): 10 mM, cytotoxicity flag (confluency mask): not cytotoxic
compound,measurement,setting,value
O=c1cc(-c2ccccc2)oc2c1ccc1ccccc12 (library stock concentration (final ~1000-fold dilution): 10 mM),IRF Lucia reporter activity,RAW-Dual [1]; [4],0.809
same,IRF Lucia reporter activity,RAW-Dual [1]; agonist: LPS (TLR4) 0.1 ug/mL,0.537
O=c1cc(-c2ccccc2)oc2c1ccc1ccccc12,IRF Lucia reporter activity,RAW-Dual [2]; [5],0.951
CCN(CC)CCCCNc1ncc2cc(-c3cc(OC)cc(OC)c3)c(NC(=O)NC(C)(C)C)nc2n1,IRF Lucia reporter activity,"RAW-Dual [2]; library stock concentration (final ~1000-fold dilution): 10 mM, cytotoxicity flag (confluency mask): cytotoxic (confluency <70% of control)",1.55
CCN(CC)CCCCNc1ncc2cc(-c3cc(OC)cc(OC)c3)c(NC(=O)NC(C)(C)C)nc2n1 (library stock concentration (final ~1000-fold dilution): 10 mM),IRF Lucia reporter activity,RAW-Dual [3]; [4],0.883
same,IRF Lucia reporter activity,RAW-Dual [3]; agonist: LPS (TLR4) 0.1 ug/mL,0.0381
Cc1ccc(Oc2ccnc3cc(-c4cnn(C5CCNCC5)c4)ccc23)cc1 (library stock concentration (final ~1000-fold dilution): 10 mM),IRF Lucia reporter activity,RAW-Dual [3]; [4],0.0554
same,IRF Lucia reporter activity,RAW-Dual [3]; agonist: LPS (TLR4) 0.1 ug/mL,0.134
C=CS(=O)(=O)NC1CCN(C(=O)CNc2cc(I)c(Cl)cc2OC)CC1,IRF Lucia reporter activity,RAW-Dual [2]; [5],0.0338
C=CS(=O)(=O)NC1CCN(C(=O)CNc2cc(I)c(Cl)cc2OC)CC1 (library stock concentration (final ~1000-fold dilution): 10 mM),IRF Lucia reporter activity,RAW-Dual [1]; [4],0.0197
same,IRF Lucia reporter activity,RAW-Dual [1]; agonist: LPS (TLR4) 0.1 ug/mL,0.0467
COc1cc([C@H]2OC[C@H]3[C@@H]2CO[C@H]3c2ccc(OC)c(OC)c2)ccc1O (library stock concentration (final ~1000-fold dilution): 10 mM),IRF Lucia reporter activity,RAW-Dual [1]; [4],0.946
same,IRF Lucia reporter activity,RAW-Dual [1]; agonist: LPS (TLR4) 0.1 ug/mL,1.03
O=C(CCCS)NC1CCN(C(=O)COc2ccc(Cl)cc2Cl)CC1,IRF Lucia reporter activity,RAW-Dual [2]; [5],0.86
O=C(CCCS)NC1CCN(C(=O)COc2ccc(Cl)cc2Cl)CC1 (library stock concentration (final ~1000-fold dilution): 10 mM),IRF Lucia reporter activity,RAW-Dual [1]; [4],0.63
same,IRF Lucia reporter activity,RAW-Dual [1]; agonist: LPS (TLR4) 0.1 ug/mL,1.02
CCOC(=O)C(CCc1ccccc1)NC(C)C(=O)N1C(C(=O)O)CC2CCCCC21 (stereo not given),IRF Lucia reporter activity,RAW-Dual [2]; [5],1.16
CCOC(=O)C(CCc1ccccc1)NC(C)C(=O)N1C(C(=O)O)CC2CCCCC21 (stereo not given) (library stock concentration (final ~1000-fold dilution): 10 mM),IRF Lucia reporter activity,RAW-Dual [1]; [4],1.01
same,IRF Lucia reporter activity,RAW-Dual [1]; agonist: LPS (TLR4) 0.1 ug/mL,0.936
CC(C)CC(CC(=O)NO)C(=O)NC(Cc1ccc2ccccc2c1)C(=O)NC(C)C(=O)NCCN (stereo not given),IRF Lucia reporter activity,RAW-Dual [2]; [5],1.03
CC(C)CC(CC(=O)NO)C(=O)NC(Cc1ccc2ccccc2c1)C(=O)NC(C)C(=O)NCCN (stereo not given) (library stock concentration (final ~1000-fold dilution): 10 mM),IRF Lucia reporter activity,RAW-Dual [1]; [4],0.9
same,IRF Lucia reporter activity,RAW-Dual [1]; agonist: LPS (TLR4) 0.1 ug/mL,0.975
O=P(O)(O)OC(CO)CO,IRF Lucia reporter activity,"RAW-Dual [2]; library stock concentration (final ~1000-fold dilution): 10 mM water, cytotoxicity flag (confluency mask): not cytotoxic",1.42
O=P(O)(O)OC(CO)CO (library stock concentration (final ~1000-fold dilution): 10 mM water),IRF Lucia reporter activity,RAW-Dual [1]; [4],1.35
same,IRF Lucia reporter activity,RAW-Dual [1]; agonist: LPS (TLR4) 0.1 ug/mL,0.743
Cc1ccc(O)c(C(CCN(C(C)C)C(C)C)c2ccccc2)c1.O=C(O)C(O)C(O)C(=O)O (stereo not given) (library stock concentration (final ~1000-fold dilution): 10 mM),IRF Lucia reporter activity,RAW-Dual [1]; [4],0.408
same,IRF Lucia reporter activity,RAW-Dual [1]; agonist: LPS (TLR4) 0.1 ug/mL,1.23
Cc1ccc(O)c(C(CCN(C(C)C)C(C)C)c2ccccc2)c1.O=C(O)C(O)C(O)C(=O)O (stereo not given),IRF Lucia reporter activity,RAW-Dual [2]; [5],1.05
Cc1ccc2nc(NC(=O)CSc3nc4c(c(=O)n3-c3ccccc3)SCC4)sc2c1 (library stock concentration (final ~1000-fold dilution): 2 mM),IRF Lucia reporter activity,RAW-Dual [1]; [4],1.07
same,IRF Lucia reporter activity,RAW-Dual [1]; agonist: LPS (TLR4) 0.1 ug/mL,1.15
Cc1ccc2nc(NC(=O)CSc3nc4c(c(=O)n3-c3ccccc3)SCC4)sc2c1,IRF Lucia reporter activity,"RAW-Dual [2]; library stock concentration (final ~1000-fold dilution): 2 mM, cytotoxicity flag (confluency mask): not cytotoxic",1.34
N#C/C(=C\c1ccc(O)c(O)c1)C(=O)NCc1ccccc1,IRF Lucia reporter activity,RAW-Dual [2]; [5],0.766
N#C/C(=C\c1ccc(O)c(O)c1)C(=O)NCc1ccccc1 (library stock concentration (final ~1000-fold dilution): 10 mM),IRF Lucia reporter activity,RAW-Dual [1]; [4],0.137
same,IRF Lucia reporter activity,RAW-Dual [1]; agonist: LPS (TLR4) 0.1 ug/mL,0.799
CC(C)(Sc1cc(C(C)(C)C)c(O)c(C(C)(C)C)c1)Sc1cc(C(C)(C)C)c(OC(=O)CCC(=O)O)c(C(C)(C)C)c1 (library stock concentration (final ~1000-fold dilution): 10 mM),IRF Lucia reporter activity,RAW-Dual [1]; [4],0.636
same,IRF Lucia reporter activity,RAW-Dual [1]; agonist: LPS (TLR4) 0.1 ug/mL,0.908
Oc1cccc(-c2nc(N3CCOCC3)c3oc4ncccc4c3n2)c1 (library stock concentration (final ~1000-fold dilution): 10 mM),IRF Lucia reporter activity,RAW-Dual [1]; [4],0.381
same,IRF Lucia reporter activity,RAW-Dual [1]; agonist: LPS (TLR4) 0.1 ug/mL,1.94
Oc1cccc(-c2nc(N3CCOCC3)c3oc4ncccc4c3n2)c1,IRF Lucia reporter activity,RAW-Dual [2]; [5],1.42
Cn1cc(-c2ccc3c(c2)CCN3C(=O)Cc2cccc(C(F)(F)F)c2)c2c(N)ncnc21,IRF Lucia reporter activity,RAW-Dual [2]; [5],0.318
Cn1cc(-c2ccc3c(c2)CCN3C(=O)Cc2cccc(C(F)(F)F)c2)c2c(N)ncnc21 (library stock concentration (final ~1000-fold dilution): 10 mM),IRF Lucia reporter activity,RAW-Dual [1]; [4],0.184
same,IRF Lucia reporter activity,RAW-Dual [1]; agonist: LPS (TLR4) 0.1 ug/mL,0.599
CC(Cc1cc2c(c(C(N)=O)c1)N(CCCO)CC2)NCCOc1ccccc1OCC(F)(F)F (stereo not given),IRF Lucia reporter activity,RAW-Dual [2]; [5],1
CC(Cc1cc2c(c(C(N)=O)c1)N(CCCO)CC2)NCCOc1ccccc1OCC(F)(F)F (stereo not given) (library stock concentration (final ~1000-fold dilution): 10 mM),IRF Lucia reporter activity,RAW-Dual [1]; [4],0.978
same,IRF Lucia reporter activity,RAW-Dual [1]; agonist: LPS (TLR4) 0.1 ug/mL,0.994
